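Interpolation was linear, between the two tested concentrations surrounding the appropriate level; five concentrations were tested over 48 hours in 96-well plates. GI50: concentration for 50% inhibition of growth. TGI: total growth inhibition.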

For this test, the system named is NCI-H322M lung. The test can be described thus: NCI anticancer screen, dose series, 48 h.
For the molecule `O=C(Cc1c(-c2ccccc2[N+](=O)[O-])n(-c2ncnc3c2c(-c2ccccc2)c(-c2ccccc2)n3Cc2ccccc2)[nH]c1=O)c1ccc(Cl)c(Cl)c1`, the GI50 is 23 µM and the TGI is over 100 µM.
For `Nc1nn2c(-c3cc4cc(Br)ccc4oc3=O)ccnc2c1N=Nc1ccccc1`, the GI50 is 2.45 µM and the TGI is 7.42 µM.
In the case of `C=C1CC[C@@H]2[C@]3(C)COC(c4cn[nH]c4-c4ccc(OC)cc4)O[C@@H]3CC[C@@]2(C)[C@@H]1C/C=C1/C(=O)OCC1O` (stereo not given in full), the GI50 is 4.17 µM and the TGI amounted to 27.4 µM.
Turning to `CCN1C(=O)N(CC)C2NNC(Sc3c(C(=O)O)c4ccccc4n(C4CCCC4)c3=O)=NC21` (stereo not given), the GI50 is 6.61 µM and the TGI is 49.5 µM.
On to `Cc1ccc2nc3c(nc2c1)c1cc(I)ccc1n3CCN(C)C`, for which the GI50 was 4.91 µM and the TGI was 18.5 µM.

Values taken from PubChem BioAssay (NCI).
